Data reported in article PMC11384143 (2024).
Values belong to the binder of their own block, whether it stands above or below them.

Molecular target: ES004-B5
Experiment: SPR

Kd: 2.73 nM | koff: 0.00366 s⁻¹
B1: 6 × His tagged huSIRPα V2 ECD recombinant protein (domain or fragment)
chain: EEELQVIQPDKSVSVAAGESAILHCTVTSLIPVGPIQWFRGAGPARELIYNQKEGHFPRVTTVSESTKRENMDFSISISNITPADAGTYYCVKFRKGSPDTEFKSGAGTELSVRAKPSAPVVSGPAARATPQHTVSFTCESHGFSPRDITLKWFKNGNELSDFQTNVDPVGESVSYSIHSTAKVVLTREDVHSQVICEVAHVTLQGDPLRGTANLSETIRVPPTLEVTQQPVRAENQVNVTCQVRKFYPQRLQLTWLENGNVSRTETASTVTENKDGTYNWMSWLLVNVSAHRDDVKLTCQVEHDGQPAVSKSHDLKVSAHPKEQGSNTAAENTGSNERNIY

Kd: 0.82 nM | koff: 0.00258 s⁻¹
B2: 6 × His tagged huSIRPα V8 ECD recombinant protein (domain or fragment)
chain: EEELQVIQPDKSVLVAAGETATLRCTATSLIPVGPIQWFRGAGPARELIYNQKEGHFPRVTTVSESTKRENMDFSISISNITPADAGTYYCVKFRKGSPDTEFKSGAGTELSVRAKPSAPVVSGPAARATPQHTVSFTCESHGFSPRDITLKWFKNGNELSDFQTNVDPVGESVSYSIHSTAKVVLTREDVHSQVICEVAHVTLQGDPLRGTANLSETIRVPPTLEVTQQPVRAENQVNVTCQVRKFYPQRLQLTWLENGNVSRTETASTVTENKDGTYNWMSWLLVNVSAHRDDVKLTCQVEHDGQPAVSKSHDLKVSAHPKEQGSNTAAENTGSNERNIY
